Assay results published in PubChem BioAssay AID651820 (National Center for Advancing Translational Sciences (NCATS), 2012).
The whole screen tested about 340,000 compounds, of which about 12,000 (3.5%) were called active. This list was built around the results that the source calls inconclusive (neither active nor inactive); the mix of calls is not that of the screen. The call rests on the fitted dose curve; in most records, active means well fitted inhibition curve with a large enough effect; inconclusive means small, poorly fitted or top-dose-only effect, or another doubt; inactive means no such curve, though single readings can be large or run the other way. No potency is given beside an inconclusive call; the fits are too rough.
On the % scale 0 is the no-effect control and ±100 the full control effect; potency means the concentration at half of the fitted maximal effect; tags describe the fitted curve by direction and shape.

Test: qHTS Assay for Inhibitors of Hepatitis C Virus (HCV)
Settings: Huh7.5.1 HCVcc-Cre (HCVcc is cell-culture hepatitis C virus) infection, luciferase reporter, 44 h; activity change, negative = inhibition: at 41.8 µM (top of the series) unless noted
Method in brief: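 Compounds are dispensed onto cells plated 4 h earlier at 1,000 per well, with HCVcc-Cre virus (about 0.5 moi) added next. Following 44 h of culture, luminescent signal is measured for 15 sec after 15 min with substrate at room temperature.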
In the case of `N#Cc1cc(-c2ccccc2)nnc1Oc1ccccc1Cl`, the Potency is reported as inconclusive [inhibitor, single point]. In the case of `Cc1cc(C(=O)Nc2cc(Br)ccc2O)on1`, the “activity change, negative = inhibition” value is reported as inactive: -5.1%. For `CCOC(=O)c1c(NC(=O)COC(=O)c2ccncc2)sc(C)c1C`, the Potency was inconclusive [inhibitor, single point]. In the case of `O=C(COC(=O)CCc1nc2ccccc2c(=O)[nH]1)NCc1ccc(F)cc1`, the Potency is reported as inconclusive [inhibitor, single point]. In the case of `Nc1nsc2ccccc12`, the Potency is reported as active: 11.2 µM. In the case of `Cc1sc2ncnc(N3CCC(C(=O)N4CC(C)SC4=Nc4ccc(Cl)cc4)CC3)c2c1C` (stereo not drawn), the Potency is reported as inconclusive [inhibitor, single point]. For `Cc1cccc(NC(=O)c2nc(-c3ccccc3)n(-c3ccccc3)n2)c1C`, the Potency was inconclusive [inhibitor, partial curve]. For `CCOC(=O)N1CCN(C(=O)c2oc3ccc(S(=O)(=O)N4CCCCC4)cc3c2C)CC1`, the “activity change, negative = inhibition” value was inactive: -21.3%. For `Cc1ccn2c(NC3CCCC3)c(-c3ccncc3)nc2c1`, the Potency was inconclusive [inhibitor, partial curve]. With `Cn1c(CNc2ccccn2)c(C#N)c2ccccc21` the Potency was active: 11.2 µM. For `CC(OC(=O)c1cc(Br)ccc1O)C(=O)NCc1ccc2c(c1)OCO2` (stereo not drawn), the Potency was inconclusive [inhibitor, single point]. In the case of `CCC(CC)C(=O)Nc1cccc(C(=O)NCc2ccco2)c1`, the “activity change, negative = inhibition” value is reported as inactive: -19.7%. With `Nc1ccccc1C(=O)NC12CC3CC(CC(C3)C1)C2` the “activity change, negative = inhibition” value was inactive: -3.42%. For `COc1ccc(CNC(=O)C2CCN(S(=O)(=O)c3cc(OC)ccc3OC)CC2)cc1`, the “activity change, negative = inhibition” value was inactive: -22.4%. With `O=C(C1CCCN(Cc2cc(Br)ccc2O)C1)N1CCCCC1` (stereo not drawn) the “activity change, negative = inhibition” value was inactive: -17.3%. With `CN1/C(=C/c2cccc[n+]2C)Sc2ccccc21` the Potency was inconclusive [inhibitor, full curve, poor fit]. In the case of `O=S(=O)(/N=C(/NS(=O)(=O)c1ccccc1)c1ccccc1)c1ccccc1`, the “activity change, negative = inhibition” value is reported as inactive: -3.39%. For `COc1ccc(C2=NOC(CNC(=O)c3ccccc3Br)C2)c(OC)c1` (stereo not drawn), the “activity change, negative = inhibition” value was inactive: -24.5%. For `COc1ccc(-c2nnc(SC(C)C(=O)Nc3ccc4c(c3)OCCO4)o2)cc1` (stereo not drawn), the “activity change, negative = inhibition” value was inactive: -16.8%. In the case of `CCCCCCCN(c1ccccc1)[C@@H]1C[C@H]2CCCC(=O)N3CC[C@@H](C1)[C@@H]23`, the Potency is reported as inconclusive [inhibitor, partial curve]. In the case of `Cc1ccc(-c2cc(-c3ccccc3Cl)c(C#N)c(N)n2)o1`, the Potency is reported as inconclusive [inhibitor, single point]. With `COc1ccc(-c2cc(C(F)(F)F)c(C#N)c(=O)[nH]2)cc1` the Potency was inconclusive [inhibitor, single point]. In the case of `COc1cccc(CNC(=O)CNC(=S)N(Cc2ccccc2)Cc2ccccc2F)c1`, the “activity change, negative = inhibition” value is reported as inactive: -17.7%. For `CCOc1ccc(Nc2nc(-c3cccnc3)cs2)cc1`, the “activity change, negative = inhibition” value was inactive: 14.7%. For `C/C(=N\NC(=O)c1ccc(N2CCCC2=O)cc1)c1ccncc1`, the “activity change, negative = inhibition” value was inactive: 12%. For `O=C(Nc1cc(F)ccc1F)c1cccc(-n2cnnn2)c1`, the Potency was inconclusive [inhibitor, single point]. With `CSCCC(NC(=O)c1ccccc1Br)C(=O)N1CCN(C(C)=O)CC1` (stereo not drawn) the “activity change, negative = inhibition” value was inactive: -4.31%. With `CCc1cc(/C(Cc2ccc3ccccc3n2)=N\O)c(O)cc1O` the Potency was inconclusive [inhibitor, single point]. With `CCOC(=O)c1c(C)n(Cc2ccccc2)c2ccc(OCC(O)Cn3nc(C)nc3C)cc12` (stereo not drawn) the Potency was inconclusive [inhibitor, partial curve]. For `CC(C)(C)c1ccc(NC(=O)c2c(F)cccc2Cl)cc1`, the Potency was inconclusive [inhibitor, partial curve]. For `Cc1ccc(OCCCC(=O)Nc2ccc3c(c2)OCCO3)cc1`, the Potency was inconclusive [inhibitor, single point]. With `COc1ccccc1NS(=O)(=O)c1cccc(C(=O)NCC(c2ccco2)N2CCCCC2)c1` (stereo not drawn) the Potency was inconclusive [inhibitor, single point]. For `Clc1ccc2nc3ccccn3c2c1`, the Potency was active: 10 µM. In the case of `C/C(=N\NC(=S)NCc1ccccc1)c1ccc(Br)cc1`, the Potency is reported as inconclusive [inhibitor, single point]. For `CCOc1cc(-c2nc(-c3ccccc3OC)no2)cc(OCC)c1OCC`, the Potency was inconclusive [inhibitor, partial curve]. With `COCCN(Cc1ccco1)C(=O)C1CCCN(c2ncnc3c2nc2n3CCCCC2)C1` (stereo not drawn) the “activity change, negative = inhibition” value was inactive: 6.89%. For `CCOc1ccc(NC(=S)N2CCN(CCN3C(=O)c4cccc5cccc(c45)C3=O)CC2)cc1`, the Potency was inconclusive [inhibitor, full curve]. In the case of `O=S(=O)(c1ccccc1)N(C1=NCCS1)S(=O)(=O)c1ccccc1`, the Potency is reported as inconclusive [inhibitor, partial curve]. In the case of `CCOc1ccc(C(=O)NC(=S)NCc2cccnc2)cc1[N+](=O)[O-]`, the Potency is reported as inconclusive [inhibitor, single point]. In the case of `Cc1ccc(C(=O)Nc2nc(=O)n(C(=O)c3ccccc3C)s2)cc1`, the “activity change, negative = inhibition” value is reported as inactive: -17.6%. In the case of `O=c1c(-c2ccc(Br)cc2)coc2c(CN3CCOCC3)c(O)ccc12`, the Potency is reported as inconclusive [inhibitor, single point]. With `Cc1ccc(S(=O)(=O)Nc2ccccc2CNc2cccc(C)n2)cc1` the Potency was inconclusive [inhibitor, partial curve]. In the case of `O=C(NC1CCCC1)C(c1ccsc1)N(C(=O)Cc1cccs1)c1ccc(F)cc1` (stereo not drawn), the “activity change, negative = inhibition” value is reported as inactive: -0.625%. With `COc1ccc(C2c3ccc(O)cc3Oc3ncn4nc(-c5ccccn5)nc4c32)cc1` (stereo not drawn) the “activity change, negative = inhibition” value was inactive: -13.4%. In the case of `COc1cc(C(=O)NCC(c2ccc(F)cc2)N2CCOCC2)ccc1OCc1ccccc1Cl` (stereo not drawn), the Potency is reported as inconclusive [inhibitor, full curve]. In the case of `CCOc1ccc(C(C)NC(=S)NC2CCCCC2)cc1` (stereo not drawn), the Potency is reported as inconclusive [inhibitor, single point]. In the case of `Cc1cc([N+](=O)[O-])ccc1-c1ccc(/C=N/NC(=O)c2ccc(Br)o2)o1`, the Potency is reported as inconclusive [inhibitor, full curve]. With `CCN1C(=O)[C@@H]2[C@@H](c3ccc(-c4ccc(F)cc4)c(OC)c3)N3CCCC[C@@]3(C(=O)OC)[C@@H]2C1=O` the Potency was inconclusive [inhibitor, single point]. For `CCOc1ccc2nc(NC(=O)c3cccc(-c4cc5ccccc5oc4=O)c3)sc2c1`, the Potency was inconclusive [inhibitor, single point]. For `Cc1ccc(C(=O)NCCc2nnc3ccc(NCCCN4CCOCC4)nn23)cc1`, the “activity change, negative = inhibition” value was inactive: 5.91%. For `O=c1[nH]c(CN2CCN(c3ccc(O)cc3)CC2)nc2scc(-c3ccc(Cl)cc3)c12`, the Potency was active: 6.31 µM. For `CC1(C)N=C(SCC(=O)Nc2ccc(Cl)cc2Cl)C(c2ccccc2)=N1`, the Potency was inconclusive [inhibitor, single point]. For `CC1CCCCC1NC(=O)/C(C#N)=C/C=C/c1ccccc1[N+](=O)[O-]` (stereo not drawn), the Potency was active: 11.2 µM. With `O=C1N=C(N2CCOCC2)S/C1=C/c1ccc(-c2ccc(F)cc2)o1` the Potency was inconclusive [inhibitor, partial curve]. With `Cc1cc(C(=O)Nc2cccc(NC(=O)c3ccco3)c2)ccc1[N+](=O)[O-]` the Potency was inconclusive [inhibitor, partial curve]. For `Cc1ccc(C(=O)N2CC(C)OC(C)C2)cc1[N+](=O)[O-]` (stereo not drawn), the “activity change, negative = inhibition” value was inactive: -0.841%. In the case of `CC(C)(C)c1cc(NC(=O)c2ccc(OC3CCCC3)cc2)no1`, the Potency is reported as inconclusive [inhibitor, full curve]. In the case of `O=C(NCCCCc1ccccc1)C1CC(c2ccc([N+](=O)[O-])cc2)=NO1` (stereo not drawn), the Potency is reported as inconclusive [inhibitor, partial curve, poor fit]. In the case of `CC(C)CN(C(=O)COC(=O)c1c2c(nc3ccccc13)CCC2)c1c(N)n(Cc2ccccc2)c(=O)[nH]c1=O`, the Potency is reported as inconclusive [inhibitor, partial curve]. In the case of `c1ccc(-c2ccccc2-c2nc(-c3cccnc3)no2)cc1`, the Potency is reported as active: 11.2 µM. In the case of `COc1ccc(/C(O)=C2/C(=O)C(=O)N(CCCN3CCOCC3)C2c2ccc(C)cc2)cc1` (stereo not drawn), the “activity change, negative = inhibition” value is reported as inactive: 2.34%. With `CCN(CC)S(=O)(=O)c1ccc2[nH]cc(C(=O)NCCC3=CCCCC3)c(=O)c2c1` the Potency was active: 11.2 µM. For `Cc1ccccc1-c1nc(CS(=O)(=O)CC(=O)NCCCN2CC(C)CC(C)C2)c(C)o1` (stereo not drawn), the Potency was inconclusive [inhibitor, partial curve]. With `Fc1ccccc1NC(=S)Nc1cccc2cnccc12` the Potency was inconclusive [inhibitor, single point]. In the case of `Cn1ncc(Cl)c1C(=O)N1CCN(c2cccc(Cl)c2)CC1`, the Potency is reported as inconclusive [inhibitor, single point]. With `Cn1cnc([N+](=O)[O-])c1S(=O)(=O)c1ccc(Cl)cc1` the Potency was inconclusive [inhibitor, single point]. With `N#Cc1cc(C(=O)c2cc(Br)ccc2O)cn(C2CCCCC2)c1=O` the Potency was active: 11.2 µM. With `C=CCSc1nnc(-c2ccccc2N=Cc2c(C)[nH]n(-c3ccccc3)c2=O)c(=O)[nH]1` the Potency was inconclusive [inhibitor, single point]. For `CCOC(=O)COc1ccc(Br)cc1/C=C/c1[nH]c(=O)[nH]c(=O)c1[N+](=O)[O-]`, the “activity change, negative = inhibition” value was inactive: 10.7%. For `CNC(=O)C1=C(C)n2c(nc3ccccc32)NC1c1ccc(OC)cc1` (stereo not drawn), the “activity change, negative = inhibition” value was inactive: 25.3%. With `O=C(NC1CCCCCCC1)c1ccc(Br)cc1` the “activity change, negative = inhibition” value was inactive: 1.95%. In the case of `CN(C)CCNC(=O)c1ccc(Cl)s1`, the “activity change, negative = inhibition” value is reported as inactive: 9.43%. In the case of `COC(=O)c1ccccc1S(=O)(=O)N(Cc1ccco1)Cc1cc2cc(OC)ccc2[nH]c1=O`, the Potency is reported as inconclusive [inhibitor, single point].
